Activity calls are given as the source filed them.
What was measured:
cells = format: functional, cell-based
[1] = target: T1, Nuclear receptor subfamily 0 group B member 1 (Homo sapiens, UniProt P51843); format: functional, cell-based;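 note: HEK293T cells transfected with SF-1 and DAX-1 plus StAR promoter luciferase reporter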
T1 sequence (P51843 whole entry): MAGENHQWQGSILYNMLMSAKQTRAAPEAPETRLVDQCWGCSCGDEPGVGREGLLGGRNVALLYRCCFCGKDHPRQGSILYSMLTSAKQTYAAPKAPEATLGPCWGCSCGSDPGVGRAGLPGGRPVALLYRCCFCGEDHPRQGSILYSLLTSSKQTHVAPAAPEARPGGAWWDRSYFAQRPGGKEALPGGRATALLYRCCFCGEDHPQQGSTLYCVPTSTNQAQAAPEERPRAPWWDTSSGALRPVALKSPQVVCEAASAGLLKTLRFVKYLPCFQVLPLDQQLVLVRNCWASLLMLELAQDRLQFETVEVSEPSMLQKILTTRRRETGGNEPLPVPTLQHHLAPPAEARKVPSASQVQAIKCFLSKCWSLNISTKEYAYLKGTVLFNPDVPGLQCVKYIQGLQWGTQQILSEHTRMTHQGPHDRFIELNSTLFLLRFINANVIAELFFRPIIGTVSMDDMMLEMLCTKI

[2] = THP-1 cell cytotoxicity, dose response, cytotoxicity control for Vif-APOBEC3G degradation inhibitor project, THP-1 cells (AID 1117359); format: functional; conditions: Human immunodeficiency virus 1, THP-1

COc1c(O)cc2c(c1OC)-c1ccc(OC)c(=O)cc1C(NC(C)=O)CC2 (stereo not drawn)
IC50 (cells): inactive: > 67.4 µM | IC50 [1]: inactive: > 67.4 µM | CC50 [2]: active: > 40 µM
